Among all 350,000 compounds or so, about 31,000 (8.9%) were called active. The inconclusive results got no clear call from the source; some entries with a clear call stand among them for comparison. The call rests on the fitted dose curve; in most records, active means well fitted inhibition curve with a large enough effect; inconclusive means small, poorly fitted or top-dose-only effect; inactive means no such curve, though single readings can be large or run the other way. A potency beside an inconclusive call is a rough fit, not a confirmed value.
The molecules below were run against Histone-lysine N-methyltransferase EHMT2 (Homo sapiens) (UniProt Q96KQ7) (assay: qHTS Assay for Inhibitors of Histone Lysine Methyltransferase G9a). Conditions: G9a H3K9 monomethylation, AlphaScreen, 2 h; activity, negative = inhibition: at 59 µM (top of the series) unless noted.
Chain of UniProt Q96KQ7 (Q96KQ7 whole entry, looked up): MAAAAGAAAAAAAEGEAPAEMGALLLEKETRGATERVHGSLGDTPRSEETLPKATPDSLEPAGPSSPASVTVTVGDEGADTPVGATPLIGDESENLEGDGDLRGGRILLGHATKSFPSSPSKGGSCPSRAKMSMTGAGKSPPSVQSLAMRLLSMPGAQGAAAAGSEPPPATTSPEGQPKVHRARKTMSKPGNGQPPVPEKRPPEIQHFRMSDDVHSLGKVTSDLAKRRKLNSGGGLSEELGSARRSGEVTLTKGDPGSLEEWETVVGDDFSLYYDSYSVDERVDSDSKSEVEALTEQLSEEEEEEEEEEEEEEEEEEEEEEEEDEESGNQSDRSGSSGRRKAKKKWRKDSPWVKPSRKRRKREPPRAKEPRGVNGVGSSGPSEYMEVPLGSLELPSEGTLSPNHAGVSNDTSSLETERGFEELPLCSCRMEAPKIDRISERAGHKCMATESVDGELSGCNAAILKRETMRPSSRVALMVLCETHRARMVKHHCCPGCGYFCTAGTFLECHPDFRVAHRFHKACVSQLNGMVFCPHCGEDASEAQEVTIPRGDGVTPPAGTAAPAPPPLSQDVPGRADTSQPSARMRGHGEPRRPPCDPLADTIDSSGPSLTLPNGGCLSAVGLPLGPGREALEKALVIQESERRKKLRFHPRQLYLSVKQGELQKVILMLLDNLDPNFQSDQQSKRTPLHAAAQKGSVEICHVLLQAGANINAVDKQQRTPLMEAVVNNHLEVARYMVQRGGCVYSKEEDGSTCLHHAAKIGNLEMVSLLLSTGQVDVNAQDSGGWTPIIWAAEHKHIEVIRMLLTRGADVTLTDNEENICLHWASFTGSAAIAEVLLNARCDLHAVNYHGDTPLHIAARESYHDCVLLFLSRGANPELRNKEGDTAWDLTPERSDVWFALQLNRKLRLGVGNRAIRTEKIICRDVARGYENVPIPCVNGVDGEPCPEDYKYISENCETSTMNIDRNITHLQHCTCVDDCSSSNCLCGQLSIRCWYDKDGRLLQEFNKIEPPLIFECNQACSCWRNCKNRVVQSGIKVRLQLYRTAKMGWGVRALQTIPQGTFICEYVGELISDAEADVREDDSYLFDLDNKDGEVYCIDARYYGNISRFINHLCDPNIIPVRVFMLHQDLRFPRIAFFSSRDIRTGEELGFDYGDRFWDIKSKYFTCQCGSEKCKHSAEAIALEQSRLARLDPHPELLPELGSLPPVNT
Procedure, shortened: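 Quantitative HTS format: methyltransferase activity on a biotin-tagged H3K9 peptide is measured by AlphaScreen, using a rabbit anti-monomethyl-H3K9 antibody with streptavidin donor and anti-IgG acceptor beads. Final levels are 20 nM enzyme, 500 nM peptide, 20 uM SAM; 2 h RT.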
`O=C(CCC1CCCC1)N1CCN(C(=O)c2cccnc2)CC1` was tested, and the Potency was inconclusive: 0.316 µM [inhibitor, full curve, poor fit].
In the case of `CCNc1ncc2nc(CCc3ccccc3)c(=O)n(CCOC)c2n1`, the activity, negative = inhibition is reported as inactive: -6.77% [at 12.7 µM].
In the case of `O=C(O)c1ccc(C=C(c2nc3ccccc3s2)c2nc3ccccc3s2)cc1`, the Potency is reported as inconclusive: 25.1 µM [inhibitor, full curve].
With `CCN1/C(=C/c2ccc3cc(C)cc(C)c3[n+]2CC)Sc2cc(C)ccc21` the Potency was active: 15.8 µM.
`NC(=O)COC(=O)CSc1cccc2cccc(Cl)c12` was tested, and the Potency was inconclusive: 89.1 µM [inhibitor, partial curve, poor fit].
With `CCC1CN(S(=O)(=O)c2ccc3c(c2)NC(=O)CC(=O)N3)c2cc(Cl)ccc2O1` (centres undefined) the Potency was “inactive”.
For `CCc1n(CC(O)COCC2CC=CCC2)c2ccccc2[n+]1C` (centres undefined), the Potency was active: 50.1 µM.
For `COc1cc(/C=N/NS(=O)(=O)c2ccccc2)ccc1OS(=O)(=O)c1ccc(C)cc1`, the Potency was inconclusive: 31.6 µM [inhibitor, single point].
With `COc1ccc(N(C(=O)c2ccc(Cl)cc2)S(=O)(=O)c2ccc(C)cc2)cc1` the Potency was “inactive”.
In the case of `COc1ccc(S(=O)(=O)n2nc(-c3ccco3)nc2NCc2ccc(OC)c(OC)c2)cc1`, the Potency is reported as inconclusive: 20 µM [inhibitor, partial curve, poor fit].
For `COC(=O)c1ccccc1NC(=O)CSc1nnnn1C1CCCCC1`, the Potency was “inactive”.
In the case of `CCOC(=O)c1cnc(SCc2nc(N)nc(Nc3ccccc3OC)n2)nc1N`, the Potency is reported as inconclusive: 35.5 µM [inhibitor, single point].
With `Cc1ccc(C)c(NC(=O)CN(C)C(=O)c2cccc(-n3cccc3)c2)c1` the Potency was active: 39.8 µM.
`COc1ccc(-c2nc3c(C#N)c[nH]n3c2NC2CCCC2)cc1` was tested, and the Potency was inconclusive: 39.8 µM [inhibitor, partial curve, poor fit].
In the case of `COc1ccccc1N1CCN(C(=O)c2cc(-c3ccc(F)cc3)[nH]c2C)CC1`, the Potency is reported as active: 50.1 µM.
`CCOc1ccc(CNCc2c(C(=O)O)n(Cc3ccc(OC)cc3)c3ccccc23)cc1` was tested, and the Potency was inconclusive: 14.1 µM [inhibitor, partial curve, poor fit].
In the case of `COCCn1nnnc1C(c1cccs1)N1CCN(c2ccccc2)CC1` (centres undefined), the Potency is reported as inconclusive: 50.1 µM [inhibitor, partial curve].
In the case of `CN(c1ccccc1)c1ccc(/C=C(\CCC(=O)O)c2nc3ccccc3s2)cc1[N+](=O)[O-]`, the Potency is reported as inconclusive: 31.6 µM [inhibitor, single point].
`Cc1ccc(N(CC(=O)Nc2cccc(C)c2)S(=O)(=O)c2cccc3nonc23)cc1` was tested, and the Potency was inconclusive: 7.94 µM [inhibitor, full curve, poor fit].

Source: PubChem BioAssay AID504332 (National Center for Advancing Translational Sciences (NCATS), 2011)
Further: nearly all actives have a fitted effect of over 75% in size.
On the % scale 0 is the no-effect control and ±100 the full control effect; potency means the concentration at half of the fitted maximal effect; tags describe the fitted curve by direction and shape.
